Data taken from patent US20260013501A1, “HERBICIDAL DERIVATIVES” (SYNGENTA CROP PROTECTION AG, priority 2022, published 2026).
At least one read-out could not be matched to a standard name with certainty.

How the values were obtained:
Format in all cases: in vivo
[1] = tested on: Ipomoea hederacea (IPOHE); experiment: Post-emergence Test (Table B2), IPOHE; design: key: five-point scale: 5=81-100%, 4=61-80%, 3=41-60%, 2=21-40%, 1=0-20% damage; conditions: rate 1000 g/Ha, evaluated after 13 days
Outline: (§1)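 Evaluation 13 days post-spray gives percent plant damage, reported in five 20% bands (1=0-20% up to 5=81-100%). Test species, sown in soil and kept at 24/16 °C day/night with 14 h light, are treated with compound in 50:50 acetone/water plus 0.5% Tween 20, applied per g/ha.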

[2] = tested on: Echinochloa crus-galli (ECHCG); experiment: Post-emergence Test (Table B2), ECHCG; design: key: 5-point damage scale: 5=81-100%, 4=61-80%, 3=41-60%, 2=21-40%, 1=0-20%; conditions: rate 1000 g/Ha, evaluated after 13 days
Outline: as §1

[3] = tested on: Setaria faberi (SETFA); experiment: Pre-emergence Test (Table B1), SETFA; conditions: Rate 1000 g/Ha, evaluated after 13 days
[4] = tested on: Echinochloa crus-galli (ECHCG); experiment: Pre-emergence Test (Table B1), ECHCG; conditions: Rate 1000 g/Ha, evaluated after 13 days
[5] = tested on: Amaranthus retoflexus (AMARE); experiment: Post-emergence Test (Table B2), AMARE; design: key: five-point scale: 5=81-100%, 4=61-80%, 3=41-60%, 2=21-40%, 1=0-20% damage; conditions: rate 1000 g/Ha, evaluated after 13 days
Outline: as §1

[6] = tested on: Setaria faberi (SETFA); experiment: Post-emergence Test (Table B2), SETFA; design: key: five-point scale: 5=81-100%, 4=61-80%, 3=41-60%, 2=21-40%, 1=0-20% damage; conditions: rate 1000 g/Ha, evaluated after 13 days
Outline: as §1

[7] = tested on: Amaranthus palmeri (AMAPA); experiment: Post-emergence Test (Table B2), AMAPA; design: key: five-point scale: 5=81-100%, 4=61-80%, 3=41-60%, 2=21-40%, 1=0-20% damage; conditions: rate 1000 g/Ha, evaluated after 13 days
Outline: as §1

[8] = tested on: Zea mays (ZEAMX); experiment: Pre-emergence Test (Table B1), ZEAMX; conditions: Rate 1000 g/Ha, evaluated after 13 days
[9] = tested on: Amaranthus palmeri (AMAPA); experiment: Pre-emergence Test (Table B1), AMAPA; conditions: Rate 1000 g/Ha, evaluated after 13 days
[10] = tested on: Ipomoea hederacea (IPOHE); experiment: Pre-emergence Test (Table B1), IPOHE; conditions: Rate 1000 g/Ha, evaluated after 13 days
[11] = tested on: Amaranthus retoflexus (AMARE); experiment: Pre-emergence Test (Table B1), AMARE; conditions: Rate 1000 g/Ha, evaluated after 13 days
[12] = tested on: Zea mays (ZEAMX); experiment: Post-emergence Test (Table B2), ZEAMX; design: key: 5-point damage scale: 5=81-100%, 4=61-80%, 3=41-60%, 2=21-40%, 1=0-20%; conditions: rate 1000 g/Ha, evaluated after 13 days
Outline: as §1

SMILES | percentage damage caused to the plant, IPOHE [1] | percentage damage caused to the plant, ECHCG [2] | Pre-emergence Test, percentage damage caused to the plant (five-point scale), SETFA [3] | Pre-emergence Test, percentage damage caused to the plant (five-point scale), ECHCG [4] | percentage damage caused to the plant, AMARE [5] | percentage damage caused to the plant, SETFA [6] | percentage damage caused to the plant, AMAPA [7] | Pre-emergence Test, percentage damage caused to the plant (five-point scale), ZEAMX [8] | Pre-emergence Test, percentage damage caused to the plant (five-point scale), AMAPA [9] | Pre-emergence Test, percentage damage caused to the plant (five-point scale), IPOHE [10] | Pre-emergence Test, percentage damage caused to the plant (five-point scale), AMARE [11] | percentage damage caused to the plant, ZEAMX [12]
CCn1c(Cc2ccc(F)cc2)cc(=O)c(C(=O)O)c1-c1ccc(Cl)c(Cl)c1 [Compound 12, 2-(3,4-dichlorophenyl)-1-ethyl-6-[(4-fluorophenyl)methyl]-4-oxo-pyridine-3-carboxylic acid] | 3 (3=41-60%) | 3 (3=41-60%) | 5 (5=81-100%) | 3 (3=41-60%) | 2 (2=21-40%) | 4 (4=61-80%) | 2 (2=21-40%) | 1 (1=0-20%) | 1 (1=0-20%) | 3 (3=41-60%) | – | –
CCn1c(Cc2cc(C(F)(F)F)ccn2)cc(=O)c(C(=O)O)c1-c1ccc(Cl)c(Cl)c1 [Compound 18, 2-(3,4-dichlorophenyl)-1-ethyl-4-oxo-6-[[4-(trifluoromethyl)-2-pyridyl]methyl]pyridine-3-carboxylic acid] | 3 (3=41-60%) | 3 (3=41-60%) | 1 (1=0-20%) | – | 2 (2=21-40%) | 3 (3=41-60%) | 2 (2=21-40%) | 1 (1=0-20%) | 1 (1=0-20%) | 2 (2=21-40%) | 1 (1=0-20%) | 1 (1=0-20%)
CCn1c(Cc2ccc(F)c(Cl)n2)cc(=O)c(C(=O)O)c1-c1ccc(Cl)c(Cl)c1 [Compound 50, 6-[(6-chloro-5-fluoro-2-pyridyl)methyl]-2-(3,4-dichlorophenyl)-1-ethyl-4-oxo-pyridine-3-carboxylic acid] | 4 (4=61-80%) | 4 (4=61-80%) | – | 5 (5=81-100%) | 4 (4=61-80%) | – | 3 (3=41-60%) | 3 (3=41-60%) | 1 (1=0-20%) | 2 (2=21-40%) | 3 (3=41-60%) | 2 (2=21-40%)
CCn1c(Cc2cccc(F)n2)cc(=O)c(C(=O)O)c1-c1ccc(Cl)c(Cl)c1 [Compound 52, 2-(3,4-dichlorophenyl)-1-ethyl-6-[(6-fluoro-2-pyridyl)methyl]-4-oxo-pyridine-3-carboxylic acid] | 3 (3=41-60%) | 3 (3=41-60%) | – | 5 (5=81-100%) | 4 (4=61-80%) | – | 4 (4=61-80%) | 5 (5=81-100%) | 2 (2=21-40%) | 4 (4=61-80%) | 3 (3=41-60%) | 3 (3=41-60%)
CCn1c(Cc2cccc(Cl)n2)cc(=O)c(C(=O)O)c1-c1ccc(Cl)c(Cl)c1 [Compound 53, 6-[(6-chloro-2-pyridyl)methyl]-2-(3,4-dichlorophenyl)-1-ethyl-4-oxo-pyridine-3-carboxylic acid] | 4 (4=61-80%) | 4 (4=61-80%) | – | 4 (4=61-80%) | 4 (4=61-80%) | – | 4 (4=61-80%) | 4 (4=61-80%) | 1 (1=0-20%) | 4 (4=61-80%) | 2 (2=21-40%) | 4 (4=61-80%)
